# Reference: PubChem BioAssay AID504332 (National Center for Advancing Translational Sciences (NCATS), 2011)
# The whole screen tested about 350,000 compounds, of which about 31,000 (8.9%) were called active. The inconclusive results got no clear call from the source; some entries with a clear call stand among them for comparison. Calls follow the shape of the dose curve; as a rule, active = well fitted inhibition curve with a large enough effect; inconclusive = small, poorly fitted or top-dose-only effect; inactive = no such curve, though single readings can be large or run the other way. Potencies beside an inconclusive call are fits to weak or partial responses and may not hold up.
# Biological target: Histone-lysine N-methyltransferase EHMT2 (Homo sapiens) (UniProt Q96KQ7)
# Assay: qHTS Assay for Inhibitors of Histone Lysine Methyltransferase G9a; also: nearly all actives have a fitted effect of over 75% in size
# Details: G9a H3K9 monomethylation, AlphaScreen, 2 h; activity, negative = inhibition: at 59 µM (top of the series) unless noted
# Method in brief: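 Using a bead-based AlphaScreen, monomethylated H3K9 product from 2 h room-temperature reactions (G9a 20 nM, peptide 500 nM, SAM 20 uM) was detected with 0.5 ug/mL rabbit anti-H3K9me1 antibody.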
# % is scaled to controls: 0 for no effect and ±100 for the full control effect; potency is read from the fitted curve at half-maximal effect; tags tell the direction and shape of the fitted curve.
# UniProt Q96KQ7, sequence (Q96KQ7 whole entry, looked up): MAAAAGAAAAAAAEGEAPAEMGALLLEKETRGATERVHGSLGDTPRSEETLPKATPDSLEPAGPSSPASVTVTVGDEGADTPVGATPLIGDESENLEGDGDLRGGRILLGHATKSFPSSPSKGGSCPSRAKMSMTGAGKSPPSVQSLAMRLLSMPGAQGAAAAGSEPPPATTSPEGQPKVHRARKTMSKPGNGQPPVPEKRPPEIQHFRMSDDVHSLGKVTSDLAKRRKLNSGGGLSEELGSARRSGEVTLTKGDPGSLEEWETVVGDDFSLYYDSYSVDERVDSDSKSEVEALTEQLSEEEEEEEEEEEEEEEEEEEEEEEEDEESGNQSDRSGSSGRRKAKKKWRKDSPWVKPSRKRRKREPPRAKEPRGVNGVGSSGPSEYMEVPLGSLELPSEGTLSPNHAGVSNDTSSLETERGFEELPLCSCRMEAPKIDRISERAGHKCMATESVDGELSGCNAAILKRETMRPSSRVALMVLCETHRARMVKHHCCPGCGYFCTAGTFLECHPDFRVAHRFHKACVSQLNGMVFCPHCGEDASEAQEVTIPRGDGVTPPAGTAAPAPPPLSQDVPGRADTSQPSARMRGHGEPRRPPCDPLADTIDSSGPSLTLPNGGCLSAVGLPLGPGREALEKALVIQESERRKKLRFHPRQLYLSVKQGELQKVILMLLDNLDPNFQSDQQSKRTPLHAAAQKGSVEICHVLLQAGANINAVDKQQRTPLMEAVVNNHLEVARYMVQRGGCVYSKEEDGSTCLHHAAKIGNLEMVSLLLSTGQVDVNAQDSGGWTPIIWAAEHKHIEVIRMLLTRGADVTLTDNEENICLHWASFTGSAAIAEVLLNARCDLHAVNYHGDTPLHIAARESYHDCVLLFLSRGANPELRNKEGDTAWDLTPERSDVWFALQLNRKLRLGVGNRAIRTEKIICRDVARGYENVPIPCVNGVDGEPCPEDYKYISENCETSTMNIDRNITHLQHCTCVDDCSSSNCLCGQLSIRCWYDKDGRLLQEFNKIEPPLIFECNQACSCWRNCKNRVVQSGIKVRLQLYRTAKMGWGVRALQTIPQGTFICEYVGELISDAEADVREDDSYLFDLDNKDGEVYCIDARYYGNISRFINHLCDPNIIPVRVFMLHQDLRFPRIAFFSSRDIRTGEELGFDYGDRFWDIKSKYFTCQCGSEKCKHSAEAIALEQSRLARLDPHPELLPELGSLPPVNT
SMILES,Potency,"activity, negative = inhibition"
CN1CCN(CC(=O)N(C)c2nc(-c3ccccc3)cs2)CC1,"inconclusive: 50.1 µM [inhibitor, partial curve]",–
COc1ccc(C2c3c(ncn(CCCO)c3=N)Oc3ccc4ccccc4c32)cc1OC (stereo not given),"inconclusive: 39.8 µM [inhibitor, single point]",–
O=C(CSc1nc(-c2ccco2)cc(C(F)(F)F)n1)NC1CCCC1,"inconclusive: 89.1 µM [inhibitor, single point]",–
CN(c1ccc(OC(=O)c2ccc(-n3cncn3)c([N+](=O)[O-])c2)cc1)S(=O)(=O)c1ccccc1,"inconclusive: 5.01 µM [inhibitor, single point]",–
Cc1ccc(NC(=O)Cn2nnc(C(=O)NCc3ccco3)c2N)c(C)c1,"inconclusive: 79.4 µM [inhibitor, single point]",–
Cc1cc(C)c2nc(NNC(=O)c3cc(-c4cccs4)nc4ccccc34)sc2c1,active: 31.6 µM,–
COc1ccc(Cl)cc1NC(=O)COC(=O)CCCC1=NS(=O)(=O)c2ccccc2N1,inactive,–
COC(=O)CC1C(=O)NCCN1C(=O)CSc1nnc(Nc2ccc(OC)cc2)s1 (stereo not given),–,inactive: -32.8% [at 0.0925 µM]
Cc1cc(C(=O)Nc2ccccn2)cs1,"inconclusive: 39.8 µM [inhibitor, single point]",–
NC(=O)c1cc(S(=O)(=O)N2CC=C(c3ccccc3)CC2)cs1,"inconclusive: 35.5 µM [inhibitor, full curve]",–
COC(=O)c1c(NC(NC(=O)C(C)C)C(Cl)(Cl)Cl)sc2c1CCCC2 (stereo not given),"inconclusive: 25.1 µM [inhibitor, single point]",–
CSC(SC)=C(C#N)C(=O)c1ccccc1,active: 50.1 µM,–
CC(=O)NCc1ccc2[nH]c(C)cc2c1,"inconclusive: 39.8 µM [inhibitor, single point]",–
CCn1c(-c2ccc3[nH]c(C)c(C)c3c2)n[nH]c1=S,active: 2.82 µM,–
CCCCN(CCCC)S(=O)(=O)c1ccc2oc(C(=O)NCc3ccccc3)c(C)c2c1,inactive,–
COc1ccc(Nc2c([N+](=O)[O-])ccc3c2=NC2(CCCCC2)N=3)cc1,active: 10 µM,–
CCCOc1ccc(C(=O)C(CN2CCOCC2)c2ccccc2)cc1 (stereo not given),"inconclusive: 39.8 µM [inhibitor, single point]",–
Cc1ccc(NC(=S)N(CCCN2CCOCC2)Cc2ccco2)cc1Cl,inactive,–
COc1ccccc1N(C(=O)c1ccncc1)c1nc(-c2ccc([N+](=O)[O-])cc2)cs1,active: 10 µM,–
COc1ccccc1CCNC(C)CCc1ccc(O)cc1 (stereo not given),"inconclusive: 20 µM [inhibitor, partial curve, poor fit]",–
